In article PMC9911399, “Two distinct binding modes provide the RNA-binding protein RbFox with extraordinary sequence specificity”:
Where a chain is given by its changes, count along the chain named. Some of the results follow.

T1: RBFOX1 RRM RbFoxmut (Fox-RRM*) (Homo sapiens, UniProt Q9NWB1 109-208, R118D;E147R;N151S;E152T)
T1 sequence: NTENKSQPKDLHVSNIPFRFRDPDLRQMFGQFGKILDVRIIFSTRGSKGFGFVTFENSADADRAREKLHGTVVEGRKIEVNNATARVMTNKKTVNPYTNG

B1: AAGCUGG (DNA:RNA)
RNA: GGGAGACCGGAAUUCAGAUUGUCCAAGCUGGUUAAAUCCCGUCGUAGCCACCA
DNA 1: CAATCTGAATTCCGGTCTCCC
DNA 2: TGGTGGCTACGACGGGATT
B2: ACGCUCU (DNA:RNA)
RNA: B1 RNA with A26C, G30C, G31U
DNA 1: CAATCTGAATTCCGGTCTCCC
DNA 2: TGGTGGCTACGACGGGATT
B3: UUACCCU (DNA:RNA)
RNA: B1 RNA with A25U, A26U, G27A, U29C, G30C, G31U
DNA 1: CAATCTGAATTCCGGTCTCCC
DNA 2: TGGTGGCTACGACGGGATT
B4: GCCAAGG (DNA:RNA)
RNA: B1 RNA with A25G, A26C, G27C, C28A, U29A
DNA 1: CAATCTGAATTCCGGTCTCCC
DNA 2: TGGTGGCTACGACGGGATT
B5: CGCGGGU (DNA:RNA)
RNA: B1 RNA with A25C, A26G, G27C, C28G, U29G, G31U
DNA 1: CAATCTGAATTCCGGTCTCCC
DNA 2: TGGTGGCTACGACGGGATT
B6: GGCAACU (DNA:RNA)
RNA: GGGAGACCGGAAUUCAGAUUGUCCGGCAACUUUAAAUCCCGUCGUAGCCACCA
DNA 1: CAATCTGAATTCCGGTCTCCC
DNA 2: TGGTGGCTACGACGGGATT
B7: GCUCUUC (DNA:RNA)
RNA: B1 RNA with A25G, A26C, G27U, G30U, G31C
DNA 1: CAATCTGAATTCCGGTCTCCC
DNA 2: TGGTGGCTACGACGGGATT
B8: AUUUUAG (DNA:RNA)
RNA: B1 RNA with A26U, G27U, C28U, G30A
DNA 1: CAATCTGAATTCCGGTCTCCC
DNA 2: TGGTGGCTACGACGGGATT
B9: GAUCCGC (DNA:RNA)
RNA: B1 RNA with A25G, G27U, U29C, G31C
DNA 1: CAATCTGAATTCCGGTCTCCC
DNA 2: TGGTGGCTACGACGGGATT
B10: UGCAAAU (DNA:RNA)
RNA: B6 RNA with G25U, C30A
DNA 1: CAATCTGAATTCCGGTCTCCC
DNA 2: TGGTGGCTACGACGGGATT
B11: CAGCUAA (DNA:RNA)
RNA: B1 RNA with A25C, G30A, G31A
DNA 1: CAATCTGAATTCCGGTCTCCC
DNA 2: TGGTGGCTACGACGGGATT
B12: ACACAAG (DNA:RNA)
RNA: B1 RNA with A26C, G27A, U29A, G30A
DNA 1: CAATCTGAATTCCGGTCTCCC
DNA 2: TGGTGGCTACGACGGGATT
B13: UGGCCCC (DNA:RNA)
RNA: B1 RNA with A25U, A26G, U29C, G30C, G31C
DNA 1: CAATCTGAATTCCGGTCTCCC
DNA 2: TGGTGGCTACGACGGGATT
B14: GUGCAGU (DNA:RNA)
RNA: B1 RNA with A25G, A26U, U29A, G31U
DNA 1: CAATCTGAATTCCGGTCTCCC
DNA 2: TGGTGGCTACGACGGGATT
B15: CACACAC (DNA:RNA)
RNA: B6 RNA with G25C, G26A, A29C, C30A, U31C
DNA 1: CAATCTGAATTCCGGTCTCCC
DNA 2: TGGTGGCTACGACGGGATT
B16: GAUUGGA (DNA:RNA)
RNA: B1 RNA with A25G, G27U, C28U, U29G, G31A
DNA 1: CAATCTGAATTCCGGTCTCCC
DNA 2: TGGTGGCTACGACGGGATT
B17: AAAGCUA (DNA:RNA)
RNA: B1 RNA with G27A, C28G, U29C, G30U, G31A
DNA 1: CAATCTGAATTCCGGTCTCCC
DNA 2: TGGTGGCTACGACGGGATT
B18: GCCCUCA (DNA:RNA)
RNA: B6 RNA with G26C, A28C, A29U, U31A
DNA 1: CAATCTGAATTCCGGTCTCCC
DNA 2: TGGTGGCTACGACGGGATT
B19: GAAAGAA (DNA:RNA)
RNA: B6 RNA with G26A, C27A, A29G, C30A, U31A
DNA 1: CAATCTGAATTCCGGTCTCCC
DNA 2: TGGTGGCTACGACGGGATT
B20: AAUCUCU (DNA:RNA)
RNA: B1 RNA with G27U, G30C, G31U
DNA 1: CAATCTGAATTCCGGTCTCCC
DNA 2: TGGTGGCTACGACGGGATT
B21: GAGUAAG (DNA:RNA)
RNA: B1 RNA with A25G, C28U, U29A, G30A
DNA 1: CAATCTGAATTCCGGTCTCCC
DNA 2: TGGTGGCTACGACGGGATT
B22: UCCCUAU (DNA:RNA)
RNA: B1 RNA with A25U, A26C, G27C, G30A, G31U
DNA 1: CAATCTGAATTCCGGTCTCCC
DNA 2: TGGTGGCTACGACGGGATT
B23: AGAUUGG (DNA:RNA)
RNA: B1 RNA with A26G, G27A, C28U
DNA 1: CAATCTGAATTCCGGTCTCCC
DNA 2: TGGTGGCTACGACGGGATT
B24: UCGAGUG (DNA:RNA)
RNA: B1 RNA with A25U, A26C, C28A, U29G, G30U
DNA 1: CAATCTGAATTCCGGTCTCCC
DNA 2: TGGTGGCTACGACGGGATT
B25: AUUUACC (DNA:RNA)
RNA: B6 RNA with G25A, G26U, C27U, A28U, U31C
DNA 1: CAATCTGAATTCCGGTCTCCC
DNA 2: TGGTGGCTACGACGGGATT
B26: GAUUUCU (DNA:RNA)
RNA: B6 RNA with G26A, C27U, A28U, A29U
DNA 1: CAATCTGAATTCCGGTCTCCC
DNA 2: TGGTGGCTACGACGGGATT
B27: UAUCACC (DNA:RNA)
RNA: B1 RNA with A25U, G27U, U29A, G30C, G31C
DNA 1: CAATCTGAATTCCGGTCTCCC
DNA 2: TGGTGGCTACGACGGGATT
B28: CUUAGAC (DNA:RNA)
RNA: B6 RNA with G25C, G26U, C27U, A29G, C30A, U31C
DNA 1: CAATCTGAATTCCGGTCTCCC
DNA 2: TGGTGGCTACGACGGGATT
B29: GCGGGAA (DNA:RNA)
RNA: B1 RNA with A25G, A26C, C28G, U29G, G30A, G31A
DNA 1: CAATCTGAATTCCGGTCTCCC
DNA 2: TGGTGGCTACGACGGGATT
B30: GCUGCUA (DNA:RNA)
RNA: B6 RNA with G26C, C27U, A28G, A29C, C30U, U31A
DNA 1: CAATCTGAATTCCGGTCTCCC
DNA 2: TGGTGGCTACGACGGGATT
B31: UUCUAAC (DNA:RNA)
RNA: B6 RNA with G25U, G26U, A28U, C30A, U31C
DNA 1: CAATCTGAATTCCGGTCTCCC
DNA 2: TGGTGGCTACGACGGGATT

Each binder was assayed against T1, RBFOX1 RRM RbFoxmut (Fox-RRM*) (assay: EMSA; HiTS-Eq, 1 nM pool, 10 min; buffer printed only for the single-RNA assays: 10 mM Tris pH 7.5, 150 mM NaCl, 3.4 mM EDTA, 0.001% NP-40, 30 C). Conditions: tags: His6 N-terminal (pET28a); label: 5' 32P.
Outline: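 These values rest on relative association constants, computed from read-count changes of each RNA species versus the control reaction and normalised to the cognate motif. Reads came from free RNA recovered by 8% native PAGE after purified RbFox RRM (wild type or mutant) at increasing concentrations was equilibrated for 10 min in 50 µL with 1 nM of a 5′-radiolabelled pool with 7 randomized nucleotides and DNA-annealed flanks.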

| Binder | binding signal |
| --- | --- |
| B1 | 0.0882 KA relative to UGCAUGU |
| B2 | 0.0451 KA relative to UGCAUGU |
| B3 | 0.084 KA relative to UGCAUGU |
| B4 | 0.0599 KA relative to UGCAUGU |
| B5 | 0.0947 KA relative to UGCAUGU |
| B6 | 0.057 KA relative to UGCAUGU |
| B7 | 0.0502 KA relative to UGCAUGU |
| B8 | 0.152 KA relative to UGCAUGU |
| B9 | 0.0971 KA relative to UGCAUGU |
| B10 | 0.0783 KA relative to UGCAUGU |
| B11 | 0.115 KA relative to UGCAUGU |
| B12 | 0.118 KA relative to UGCAUGU |
| B13 | 0.0665 KA relative to UGCAUGU |
| B14 | 0.105 KA relative to UGCAUGU |
| B15 | 0.0688 KA relative to UGCAUGU |
| B16 | 0.0641 KA relative to UGCAUGU |

| Binder | binding signal |
| --- | --- |
| B17 | 0.0949 KA relative to UGCAUGU |
| B18 | 0.0672 KA relative to UGCAUGU |
| B19 | 0.0926 KA relative to UGCAUGU |
| B20 | 0.0366 KA relative to UGCAUGU |
| B21 | 0.11 KA relative to UGCAUGU |
| B22 | 0.087 KA relative to UGCAUGU |
| B23 | 0.125 KA relative to UGCAUGU |
| B24 | 0.167 KA relative to UGCAUGU |
| B25 | 0.108 KA relative to UGCAUGU |
| B26 | 0.0523 KA relative to UGCAUGU |
| B27 | 0.0566 KA relative to UGCAUGU |
| B28 | 0.068 KA relative to UGCAUGU |
| B29 | 0.114 KA relative to UGCAUGU |
| B30 | 0.0972 KA relative to UGCAUGU |
| B31 | 0.108 KA relative to UGCAUGU |
